From ChEMBL document CHEMBL1201862, “PubChem BioAssay data set” (2004) come the findings set out here.

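Cells were grown in 96-well plates and exposed to each compound for 48 hours at five concentrations; endpoints were interpolated linearly between bracketing concentrations, or set to the highest concentration if not reached. The concentration for 50% growth inhibition is given as GI50.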 Active and inactive are the calls of the source. Cut-off read from the data, not from the text of the source: active = GI50 up to about 1.1 µM and inactive = higher.

The assay has as its system NCI-H322M. Kind of assay: NCI tumour cell line growth inhibition, 48 h.
As to `O=C(O)CCNS(=O)(=O)c1ccc2ccccc2c1`, the GI50 was inactive: > 100 µM.
On to `CCCC(c1cc(C(C)(C)C)c(O)cc1C)c1cc(C(C)(C)C)c(O)cc1C`, for which the GI50 was inactive: 4.15 µM.
For `O=C1C(F)=CC(COC(c2ccccc2)(c2ccccc2)c2ccccc2)OC1n1cc(F)c(=O)[nH]c1=O` (stereo unspecified), the GI50 is inactive: 5.19 µM.
`C[n+]1c2ccccc2c(/C=N\NS(=O)(=O)c2ccc(Cl)cc2)c2ccccc21`: the GI50 is inactive: > 100 µM.
With `COc1ccc(C(OCC2OC(n3ccc(Oc4c(F)c(F)c(F)c(F)c4F)nc3=O)CC2OP(OCCC#N)N(C(C)C)C(C)C)(c2ccccc2)c2ccc(OC)cc2)cc1` (stereo unspecified), the GI50 was inactive: > 100 µM.
Regarding `O=c1c2c(F)c(F)c(F)c(F)c2sc2nccn12`, the GI50 is inactive: 19.7 µM.
For the compound `O=c1[nH]c(Nc2nc3ccccc3[nH]2)nc(O)c1-c1ccccc1`, the GI50 was inactive: > 100 µM.
Take `CC1=CC(=O)/C(=C/Nc2nc(-c3ccc([N+](=O)[O-])cc3)cs2)C(=O)O1`: the GI50 was inactive: > 100 µM.
Under `Cc1[nH]c(-c2ccccc2)c(O)c1C(=O)OC12CC3CC(CC(C3)C1)C2` stands inactive: 15.8 µM; under `CC(=O)N/C(=C\c1ccc(/C=C(\NC(C)=O)c2nc3cc(Cl)ccc3[nH]2)cc1)c1nc2ccccc2[nH]1`, inactive: > 100 µM.
`O=C(CC(c1ccccc1)N1CCCCC1)c1ccccc1` (stereo unspecified): the GI50 is inactive: 17.3 µM.
Under `CC(=O)NNc1nc(C)c(C(=O)/C=C/c2ccc(Cl)cc2)s1` stands inactive: > 100 µM; under `CC(=NNC(=S)Nc1ccccc1)c1cccc(C(C)=NNC(=S)Nc2ccccc2)n1`, inactive: 2.86 µM.
The result for `N#Cc1c(-c2ccco2)cc(-c2ccc(NCc3nc4ccccc4[nH]3)cc2)nc1N` reads inactive: 32.7 µM; that for `CCOC(=O)C(C)(NC(=O)c1ccc(NCc2ccc3nc(NC(=O)c4ccccc4)nc(NC(=O)c4ccccc4)c3c2)cc1)C(=O)OCC`, inactive: 22.2 µM.
As to `COc1ccc(C(=O)C(c2ccc(OC)cc2)C2OC(=O)C(Cl)=C2Cl)cc1` (stereo unspecified), the GI50 was inactive: > 100 µM.
Under `CC(/C=C/c1ccc([N+](=O)[O-])o1)=N/N1CC(CN2CCOCC2)OC1=O` (stereo unspecified) stands inactive: 38.2 µM.
On to `CSC1=N/C(=C\c2c[nH]c3ccccc23)C(=O)N1`, for which the GI50 was inactive: 56 µM.
With `CC1CNC(c2ccc(CN3CCC(CCCC4CCN(Cc5ccc(C6=NC(C)CN6)cc5)CC4)CC3)cc2)=N1` (stereo unspecified), the GI50 is inactive: 29.6 µM.
As to `COc1cc(CNCc2cc(OC)c(OC)c(OC)c2)cc(OC)c1OC`, the GI50 is inactive: > 10 µM.
Consider `Cc1ccc2nc(N/N=C/c3cccc(C)n3)cc(C)c2c1`, for which the GI50 is inactive: 17.7 µM.
Regarding `Clc1ncnc2c1ncn2CCCCCCCCCCCCn1cnc2c(Cl)ncnc21`, the GI50 was inactive: 13.3 µM.
Regarding `NC(=O)NN=C(CS)CS`, the GI50 is inactive: 17.8 µM.
The result for `CCOC(=O)c1cnc(-n2[nH]c3c(c2=O)CCCC3)[nH]c1=O` reads inactive: 60 µM; that for `NCCCCN(CCCN)Cc1ccc2ccccc2c1`, inactive: 35.4 µM; that for `CC1CCCC(C(O)CC2CC(=O)NC(=O)C2)C1O` (stereo unspecified), inactive: > 100 µM.
Turning to `CC(=O)c1c2c(cc3c1CC1(C3)Cc3cc4c(c(C(C)=O)c3C1)CCCC4)CCCC2`, the GI50 was inactive: > 100 µM.
Under `Nc1nc2c(N)cc(C(F)(F)F)cc2nc1-c1ccccc1` stands inactive: > 100 µM; under `CCOC(=O)Cc1csc(Nc2ccc(OCC)cc2)n1`, inactive: > 100 µM; under `CC(C)CC1CC2C(=O)N(c3ccccc3)C(=O)C2c2[nH]c3ccccc3c21` (stereo unspecified), inactive: > 65 µM.
The result for `C/C(=N\NC(=O)/C(C#N)=C\c1ccc(N(CCC#N)CCC#N)cc1)c1ccccc1` reads inactive: > 10 µM; that for `CC1OC(n2ncc(=O)[nH]c2=O)C=CC1=O` (stereo unspecified), inactive: > 100 µM; that for `CC1=Nc2c(O)nc(S)nc2NC(c2ccc(Cl)c(Cl)c2)C1` (stereo unspecified), inactive: > 100 µM.
For the compound `S=C1SSC2N=CC=CC12` (stereo unspecified), the GI50 is inactive: > 100 µM.
Turning to `CCC(C(=O)C(=O)C(CC)P1(=O)OC(C)(C)CN1C(C)(C)C)P1(=O)OC(C)(C)CN1C(C)(C)C` (stereo unspecified), the GI50 was inactive: > 100 µM.
Under `CC(C)CCC[C@@H](C)[C@H]1CC[C@H]2C3=C[C@H](OS(=O)(=O)O)[C@@]4(O)C[C@@H](O)CC[C@]4(C)[C@@]3(O)CC[C@]12C` stands inactive: > 100 µM; under `CCCCCCCCCCCCOP(=O)(O)OCC(N)C(=O)O` (stereo unspecified), inactive: 33.9 µM.
For the compound `Nc1ncc(Cl)c(NCC2(CO)CC(CCc3ccccc3)C2)n1` (stereo unspecified), the GI50 is inactive: > 100 µM.
The result for `COc1ccccc1/N=C(\N)N/N=C/c1c[nH]c2ccccc12` reads inactive: 10.6 µM; that for `CC1=CC2C(=O)N(c3ccccc3)C(=O)C2CC1n1[nH]c(=O)n(Cc2ccccc2)c1=O` (stereo unspecified), inactive: > 100 µM.
In the case of `[O-][S+](Cc1cc2c(cc1Br)OCO2)c1ccccc1` (stereo unspecified), the GI50 is inactive: > 100 µM.
Under `CCOC(=O)N1C(c2ccccc2)C=CC(c2ccccc2)N1C(=O)OCC` (stereo unspecified) stands inactive: > 100 µM.
Under `CCOC(=O)C(=[N+]=[N-])C(=O)CSC#N` stands inactive: > 100 µM; under `CCCNC(=O)C(C)(Cl)C(=O)c1ccccc1O` (stereo unspecified), inactive: > 100 µM.
Under `CCCCc1ccc(NC(=N)N)cc1` stands inactive: 39.6 µM; under `O=C1CCC2(CCC(=O)NC2=O)C(=O)N1`, inactive: > 100 µM; under `COc1cccc(N2C(=O)CS(=O)(=O)C2c2cccc(Oc3ccccc3)c2)c1` (stereo unspecified), inactive: 21.6 µM.
Regarding `O=C1OC(c2ccccc2)=N/C1=C\c1cccc2ccccc12`, the GI50 was inactive: > 100 µM.
As to `O=[N+]([O-])/C(Cl)=C(\Nc1ccccc1)C(Cl)=C(Cl)Cl`, the GI50 is inactive: 39.9 µM.
For the compound `CC(=O)NC1=C(Nc2ccc(C)cc2)C(=O)c2ccccc2C1=O`, the GI50 is inactive: 12.8 µM.
For `NC(=O)C(=CNC(=S)Nc1ccc(S(=O)(=O)Nc2ccccn2)cc1)C(N)=O`, the GI50 is inactive: > 100 µM.
With `Sc1nnc(C23CC4CC(CC(C4)C2)C3)n1-c1ccc(Cl)cc1`, the GI50 is inactive: 14.8 µM.
As to `COC1=CC(=O)C2=C(C1=O)[C@H]1CC[C@]3(C)[C@@H](OC(C)=O)CC[C@H]3[C@@H]1CC2`, the GI50 is inactive: > 100 µM.
For the compound `COC(=O)C1=C(c2cc(OC)c(OC)c(OC)c2)OC(c2cc(OC)c(OC)c(OC)c2)C1` (stereo unspecified), the GI50 was inactive: 55.2 µM.
Under `Cc1ccc(C(=O)CC(O)(C(F)(F)F)C(F)(F)F)cc1[N+](=O)[O-]` stands inactive: 2.32 µM.
Under `CN1CCN([C@H]2C[C@H]3[C@@H]4CC=C5C[C@@H](O)CC[C@]5(C)[C@H]4CC[C@]3(C)C2=O)CC1` stands inactive: > 100 µM; under `COc1ccc2oc(=N)c(C(N)=S)cc2c1`, inactive: 29.2 µM.
Under `CC(=O)c1cccc(NC(=O)/C(=N\NC(C)(C)C)c2c(O)c3ccccc3oc2=O)c1` stands inactive: > 100 µM; under `Cn1c(N=[N+]=[N-])cc(=O)n(C)c1=O`, inactive: > 100 µM; under `O=c1c2c(-c3ccccc3)c3ccccc3nc2cnn1-c1ccccc1`, inactive: > 100 µM.
As for `C=C[C@@]1(O)CCCC2=C(C(=O)OCC)CC[C@]21C`, the GI50 is inactive: > 100 µM.
`NNC(=O)c1nnn(N)c1S`: the GI50 is inactive: > 100 µM.
In the case of `CCN1CCC(O)(/C=C/c2ccc(Cl)cc2)C(C(=O)/C=C/c2ccc(Cl)cc2)C1` (stereo unspecified), the GI50 is inactive: 68.2 µM.
In the case of `Cc1ccc(C(=O)O)c(CC2Cc3c(C)cccc3C2=O)c1` (stereo unspecified), the GI50 is inactive: > 100 µM.
As for `[N-]=[N+]=CC(=O)OCCCCl`, the GI50 was inactive: > 100 µM.
Turning to `Cc1ccc(-n2cc(-c3ccc(Cl)cc3)c3c(NN)ncnc32)cc1`, the GI50 was inactive: 2.08 µM.
`COc1cccc2c1C(=O)C1(O)CCCCC21` (stereo unspecified): the GI50 was inactive: > 100 µM.
With `COc1ccc(C2c3cc4c(cc3OC(O)(CO)C2C(=O)O)OCO4)cc1.COc1ccc(C2c3cc4c(cc3OC3(O)COC(=O)C23)OCO4)cc1` (stereo unspecified), the GI50 was inactive: 39.6 µM.
The result for `Cc1ccc(NC(=O)CCC(CC(=O)C(C)(C)C)=NNC(=O)C(=O)NN)cc1C` reads inactive: > 100 µM; that for `CC1(C)CC(=O)c2c(nc3ccc4ccccc4c3c2-c2ccc(NC(=O)CCCCCCCCC(=O)Nc3ccc(-c4c5c(nc6ccc7ccccc7c46)CC(C)(C)CC5=O)cc3)cc2)C1`, inactive: > 100 µM.
The result for `Cc1ccc2c(c1)-c1c3c(nn1C)-c1ccccc1SC3O2` (stereo unspecified) reads inactive: > 100 µM; that for `COC(=O)[C@@H]1O[C@]12C(CO[Si](C)(C)C(C)(C)C)OC(n1ccc(=O)[nH]c1=O)C2O[Si](C)(C)C(C)(C)C` (stereo partly specified), inactive: 35.6 µM; that for `CC(=O)OCC1(C)C(OC(C)=O)CCC2(C)C(CC(OC(C)=O)C3=CCOC3=O)C(O)(CO)CCC12` (stereo unspecified), inactive: > 100 µM.
On to `CCC1(CN(C)C)CC/C(=C\c2ccc(OC)cc2)C1=O` (stereo unspecified), for which the GI50 was inactive: > 100 µM.
Take `CC1=C(CCC(C)CO)O[C@H]2C[C@H]3[C@@H]4CC[C@H]5C[C@@H](O)CC[C@]5(C)[C@H]4CC(=O)[C@]3(C)[C@@H]12` (stereo partly specified): the GI50 is inactive: 26.3 µM.
On to `CCOC(=O)C1=C(Cl)c2cccnc2C1=O`, for which the GI50 was inactive: > 100 µM.
Regarding `Cc1ccccc1C1OC(=O)c2ccccc21` (stereo unspecified), the GI50 is inactive: > 100 µM.
The result for `O=C1C=C2CC[C@H]3[C@@H]4CC[C@H](Oc5c6ccccc6nc6ccccc56)[C@H]4CC[C@@H]3[C@H]2CC1` reads inactive: 55.8 µM.
As to `Cc1ccc(-n2c(N)c(C#N)c3[nH]nc(N)c3c2=O)cc1`, the GI50 was inactive: > 100 µM.
In the case of `CN(C)Cc1ccc(-c2cc3onc(-c4ccccc4)c3c(=O)n2C)cc1`, the GI50 was inactive: 40.7 µM.
In the case of `COc1c(OC)c(OC)c2c(=O)cc(-c3ccc(OC(C)C)cc3)oc2c1OC`, the GI50 is inactive: > 37.3 µM.
